Data from the RNAGym collection of RNA variant scans (doi:10.7554/elife.90254).
Read counts are not given, so values of variants with three or more changes are uncertain.

B1: LINE1-mini (parent)
chain: GGCAGAGCUCAACACAGCGUGGCAAAGUGGCUGUGGCUAGACUGCC

Variants of: B1
Test: self-cleavage, relative activity (ratio to wild type); higher = more cleavage; in vitro, sequencing; the parent is a self-cleaving ribozyme

Variant | self-cleavage
G1A C8U C13U G22U U28C | 1.86
G1A C8U G17U U28C G35U G36C | 0.19
G1A C8U U28A G30A G40U | 0.3
G1A C10A A24G | 0.06
G1A C10A C13U U32C | 0.08
G1A C10A C15G | 0.09
G1A C10A C15G U32A | 0.03
G1A C10A C15U G36C G44U | 0.01
G1A C10A G21C G22A G27C G36C | 0.04
G1A C10A G22C G40U U43C | 0
G1A C10G A25C | 0.09
G1A C10G G21U G35A | 0.09
G1A C10G G27A A41C | 0
G1A C10G U20G | 0.1
G1A C10U A39U | 0.23
G1A C10U C13A | 0.05
G1A C10U C13G C46A | 0.47
G1A C10U C15A G22C C42U C45U | 0.02
G1A C10U C18U | 0.63
G1A C13A G36C C46G | 0.17
G1A C13G C15U | 0.08
G1A C13G C42A | 0.04
G1A C13G G35A A39G | 0.06
G1A C13U A16U C23A C46G | 0.13

Variant | self-cleavage
G1A C13U A41G | 0.08
G1A C13U C23G | 0.39
G1A C13U G21A U43C | 0.06
G1A C13U G29A G36U U38C C42A U43C | 0.04
G1A C13U G29U C31A G40A | 0.02
G1A C13U G40C | 0.03
G1A C13U G44A | 0.06
G1A C15A G33C | 0.08
G1A C15U C45G | 0.12
G1A C15U G19C | 1.34
G1A C15U U32A G40A | 0.04
G1A C18A G21A C42A U43G | 0.03
G1A C18A G27C U28G G29A C37A | 0.05
G1A C18A G35A A41U | 0.02
G1A C18A G35C A41C G44A | 0.01
G1A C18A G36U U38C | 0.03
G1A C18U A26U A39C | 0.06
G1A C18U A39G | 0.06
G1A C18U G19A G40U | 0.04
G1A C18U G21A | 1.86
G1A C18U U20G C45U | 0.12
G1A C18U U43C C45A | 0.02
G1A C23A G27U G29A C31U U38A C45U | 0.5
G1A C23A G30C U43A | 0.08

Variant | self-cleavage
G1A C23G C31A G33U G35U | 0.1
G1A C23G C31U | 0.13
G1A C23U A39C | 0.09
G1A C23U U43C | 0.12
G1A C31U U34A | 0.02
G1A G2A C13U | 2.27
G1A G2A C31U | 0.48
G1A G2A C46G | 1.48
G1A G2A G7A G17U U28G U32C A41U C42G | 0.07
G1A G2A U9G C10G U20G | 0.03
G1A G2C A6G C8G A11C C13A C18U G30A C31U | 0
G1A G2C A11U G27C | 0.02
G1A G2C C3A A25C G27A | 0.93
G1A G2C C10A | 0.01
G1A G2C C18G G35U | 0.03
G1A G2C C18U | 0.04
G1A G2U C8A U9A C13A G27A G29C C45A | 0.09
G1A G2U C15G | 0.03
G1A G2U C15G A16U U28A | 0.01
G1A G2U C18U G22U | 0.78
G1A G2U C18U G30A U32C | 0.09
G1A G2U G7U C23A G27C U32G G35U | 0.14
G1A G5A C15A G29U G33U G36C | 0.07
G1A G5A G17A | 0.06

Variant | self-cleavage
G1A G5A G17A C37U | 0.14
G1A G5A G19C C23G A24G A26U | 0.04
G1A G5C C42G C45U | 0.08
G1A G5C G7C G30C G40A | 0.45
G1A G5C U20C G35A | 0.03
G1A G5U A6U A11U A24G U32C G33A | 0
G1A G5U A39U | 0.18
G1A G5U C13G U32G | 0.04
G1A G5U C15A G22U | 0.06
G1A G5U C46A | 0.04
G1A G5U G22A | 0.06
G1A G5U G22U | 0.07
G1A G5U U38G | 0.03
G1A G7A A16C U43G | 0.33
G1A G7A A25U G44C | 0.26
G1A G7A C10A G35A | 0.12
G1A G7A C31G | 0.85
G1A G7C C10G A11C C37U C45U C46U | 0.02
G1A G7C C13G C37G | 0.69
G1A G7C G17U | 0.15
G1A G7U A24U C42U C46U | 0.04
G1A G7U A25C | 0.14
G1A G7U A25C C42A | 0.23
G1A G7U A25U G27A | 0.07

Variant | self-cleavage
G1A G17A C42A | 0.06
G1A G17C A41G | 0.03
G1A G17C C18A | 0.18
G1A G17U A26U U28G | 0.34
G1A G17U G21U A25G G30C | 0.2
G1A G17U G21U U28C A39U U43G | 0.04
G1A G17U G35C G36A | 0.04
G1A G17U G44C | 0.05
G1A G19A C23U A25C C31A | 1.99
G1A G19A G22C U43A | 0.02
G1A G19A U34A U38A G40U A41U | 0.06
G1A G19C G21U A26C | 0.47
G1A G19U A41G G44C | 0.07
G1A G21A C23U A26U C37G G44U C45A | 0.01
G1A G21C A25C G35U G36C | 0.17
G1A G21C C31U U32A | 0.09
G1A G21C G33U G44A C46U | 0.03
G1A G21U A24C G44C | 0.18
G1A G21U C37G G40A | 0.03
G1A G21U G44U | 0.34
G1A G22A C46G | 1.36
G1A G22A G29C | 2.84
G1A G22A G44A | 0.64
G1A G22A U32A U43C | 0.02

Variant | self-cleavage
G1A G22C A25G A39C | 0.04
G1A G22C G27U G29A | 0.6
G1A G22U C31G C42A | 0.02
G1A G22U G29U | 0.25
G1A G22U G35C C42G C46A | 0.02
G1A G27C G30U | 0.19
G1A G27C U28C G44A | 0.01
G1A G27C U32G G35U A39G | 0.12
G1A G29U C31U C42A | 0.03
G1A G30A C45U | 0.55
G1A G30C U43A G44U | 0.02
G1A G30U U43C C46U | 0.06
G1A G33C C37A G40U G44A | 0.08
G1A G33U U34G G35U C45A | 0.03
G1A G35A G40U | 0.06
G1A G36A G40C | 0.18
G1A G40A C45U | 0.33
G1A U9A A26U | 0.04
G1A U9A C15U A16G G29A | 0.24
G1A U9A G21C A39G U43C | 0.84
G1A U9C A11C A26C G35C | 0
G1A U9C U32G A41C C46U | 0.05
G1A U9G A12U G17A U28G G33U | 0.04
G1A U9G G27U G44C | 0.17

Variant | self-cleavage
G1A U9G G40U U43A | 0.05
G1A U9G U43C | 0.04
G1A U20C A25C | 0.32
G1A U20C C31U C37G | 0.01
G1A U20G C23U G29C C31G A41C | 0.02
G1A U20G G29U G30A | 0.25
G1A U20G U28A | 0.07
G1A U28C U38C A39G | 0.05
G1A U28G U34G | 0.06
G1A U34A G35U | 0.12
G1A U34G G36A G40C U43G | 0.03
G1A U38A U43A | 0.07
G1C A4C A6U A12U G19U C23U | 0.11
G1C A4C A24G C31G | 0.02
G1C A4C A25U G40C C42A | 0.01
G1C A4C C18A C23U A39C | 0.02
G1C A4C G5A C23G U28G G35C U38C | 0
G1C A4C G7U G17C U20A G21U | 0.31
G1C A4C G27U C42G | 0.03
G1C A4G A25U | 0.02
G1C A4G C8G U9C C46G | 0.04
G1C A4G C15G G27U G29C U32G G35A | 0.01
G1C A4G U20A | 0.02
